The source gives no read counts; variants with many changes may rest on few reads.
B1: CPEB3 Ribozyme (parent)
chain: UAACAGGGGGCCACAGCAGAAGCGUUCACGUCGCAGCCCCUGUCAGAUUCUGGUGAAUCUGCGAAUUCUGCUGUAUAUCUC

Variants of: B1
Experiment: self-cleavage, relative activity (ratio to wild type); higher = more cleavage; in vitro, sequencing
Summary of the method: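 Relative activity compares each variant's cleaved/total read fraction with that of the unmutated ribozyme. To get these fractions, barcoded CPEB3 ribozyme libraries from rounds of error-prone PCR were transcribed with T7 RNA polymerase for 5 hours at 37°C and then given 15 min of DNase I treatment before EDTA was added. The RNAs were reverse transcribed with template switching and sequenced on Illumina, and DNA sequencing linked barcodes to variants. A minimum of 5 reads applied, and three batches were averaged.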

**Q.** With U26A U41A U78C as the variant, how does the self-cleavage read?
**A.** 0.1

**Q.** Which self-cleavage does the source give for U25C U48C U54C here?
**A.** 0.1

**Q.** Which self-cleavage does the source give for U26A U31A U74A here?
**A.** 0.78

**Q.** With U26A C40A U69C as the variant, how does the self-cleavage read?
**A.** 0.19

**Q.** Which self-cleavage does the source give for U25C U43C G53C A65G here?
**A.** 0.5

**Q.** With U26A U31C U41C as the variant, how does the self-cleavage read?
**A.** 0.44

**Q.** Which self-cleavage does the source give for U25C U51A U54C here?
**A.** 0.17

**Q.** With U26A U43A U60C as the variant, how does the self-cleavage read?
**A.** 0.29

**Q.** With U26A A64G U74A as the variant, how does the self-cleavage read?
**A.** 1.11

**Q.** Which self-cleavage does the source give for U26A U51A U54C U58C here?
**A.** 0.24

**Q.** With U26A A47G C71U as the variant, how does the self-cleavage read?
**A.** 0.41

**Q.** With U25C U76C U80C as the variant, how does the self-cleavage read?
**A.** 0.32

**Q.** Which self-cleavage does the source give for U25C U41C A75G here?
**A.** 0.43

**Q.** With U25G U49C U72C U78C as the variant, how does the self-cleavage read?
**A.** 0.21

**Q.** Which self-cleavage does the source give for U25G U43C A45G A47U U58A here?
**A.** 0.16

**Q.** With U26A U72C U78A as the variant, how does the self-cleavage read?
**A.** 1.03

**Q.** For U26C A28G C71G, which self-cleavage is on record?
**A.** 0.09

**Q.** With U25G A28U U31C A45G U48A U76C U78C as the variant, how does the self-cleavage read?
**A.** 0.13

**Q.** For U26A C40A G55U U60C U67C A75G, which self-cleavage is on record?
**A.** 0.06

**Q.** Which self-cleavage does the source give for U25C U41A U48C here?
**A.** 0.37

**Q.** With U26A A28G A47G U49A G53U G61C G70U as the variant, how does the self-cleavage read?
**A.** 0.09

**Q.** With U26A U41C A65U as the variant, how does the self-cleavage read?
**A.** 0.23

**Q.** Which self-cleavage does the source give for U26A C27U U67C U72A here?
**A.** 0.13

**Q.** With U25C U54A U74C as the variant, how does the self-cleavage read?
**A.** 0.23

**Q.** Which self-cleavage does the source give for U26A U54A U60C G70A here?
**A.** 0.42

**Q.** For U26A U31C C34U U41A U54A, which self-cleavage is on record?
**A.** 0.15

**Q.** For U25C U49A C62U U74A, which self-cleavage is on record?
**A.** 0.09

**Q.** Which self-cleavage does the source give for U25C U43C A45U U78C here?
**A.** 0.17

**Q.** For U25C U43C A56G A75G, which self-cleavage is on record?
**A.** 0.07

**Q.** For U25C U41C A45G A56G A64U, which self-cleavage is on record?
**A.** 0.14

**Q.** Which self-cleavage does the source give for U26A A57G U69C U72C here?
**A.** 0.25

**Q.** With U25C U49C A75G as the variant, how does the self-cleavage read?
**A.** 0.15

**Q.** Which self-cleavage does the source give for U26A U43C U58A here?
**A.** 0.14

**Q.** For U25G G42A U48C, which self-cleavage is on record?
**A.** 0.17

**Q.** With U26C A28G C81U as the variant, how does the self-cleavage read?
**A.** 0.29

**Q.** For U26A A75C A77U, which self-cleavage is on record?
**A.** 1.16

**Q.** For U26A C38A A56G U66C C71A U80C, which self-cleavage is on record?
**A.** 0.24

**Q.** Which self-cleavage does the source give for U26C A28G U41G here?
**A.** 0.11

**Q.** Which self-cleavage does the source give for U25C U58G G61A A64G U74C here?
**A.** 0.16

**Q.** For U26A U51A U72A, which self-cleavage is on record?
**A.** 0.71

**Q.** With U26A A28G A56G U69A as the variant, how does the self-cleavage read?
**A.** 0.15

**Q.** Which self-cleavage does the source give for U26A U41C A47G U49C G63A here?
**A.** 0.13

**Q.** Which self-cleavage does the source give for U25C U41C U67C U69A U72A here?
**A.** 0.12

**Q.** For U25C U51C U78C, which self-cleavage is on record?
**A.** 0.3

**Q.** Which self-cleavage does the source give for U26A C32U A47G G55A U76C A77G here?
**A.** 0.06

**Q.** With U26A A28G A45G U66C U80A as the variant, how does the self-cleavage read?
**A.** 0.09

**Q.** For U25C U48C A64G, which self-cleavage is on record?
**A.** 0.26

**Q.** For U25C U43C U48C U80A, which self-cleavage is on record?
**A.** 0.11

**Q.** For U26A U31C A35C C79A, which self-cleavage is on record?
**A.** 0.56

**Q.** With U25C U41A A64G as the variant, how does the self-cleavage read?
**A.** 0.2

**Q.** With U26C A28C U66C as the variant, how does the self-cleavage read?
**A.** 0.21

**Q.** For U26A U43A U72G, which self-cleavage is on record?
**A.** 0.09

**Q.** With U26A U43C A47G U60G A77G as the variant, how does the self-cleavage read?
**A.** 0.13

**Q.** Which self-cleavage does the source give for U25C U51C U66C U69A here?
**A.** 0.16

**Q.** Which self-cleavage does the source give for U26A C39A U43C U51G here?
**A.** 0.03

**Q.** For U25C U43A U48C, which self-cleavage is on record?
**A.** 0.29

**Q.** Which self-cleavage does the source give for U25C U48C G70A here?
**A.** 0.37

**Q.** Which self-cleavage does the source give for U26A U31C G46U A64U here?
**A.** 0.1

**Q.** With U26A U31C U54G G61U A64U U69C G73A as the variant, how does the self-cleavage read?
**A.** 0.11

**Q.** Which self-cleavage does the source give for U26A U43G A64U U72C here?
**A.** 0.15

**Q.** For U25C U43C A56U U78G, which self-cleavage is on record?
**A.** 0.27

**Q.** Which self-cleavage does the source give for U25C U41C A56G U66C here?
**A.** 0.1

**Q.** With U26A C38U U51A A56U U60C U80A as the variant, how does the self-cleavage read?
**A.** 0.12

**Q.** For U25C U49C U58C U60A A75C, which self-cleavage is on record?
**A.** 0.38

**Q.** For U25C U48C A56U C59G U74C, which self-cleavage is on record?
**A.** 0.09

**Q.** Which self-cleavage does the source give for U26A U51A U74C here?
**A.** 1.09

**Q.** With U26A U48C U66C U80C as the variant, how does the self-cleavage read?
**A.** 0.14

**Q.** For U26A G63U U66A, which self-cleavage is on record?
**A.** 0.29

**Q.** Which self-cleavage does the source give for U25C U51A A64G U74C here?
**A.** 0.2

**Q.** Which self-cleavage does the source give for U25C U49C C50A here?
**A.** 0.23

**Q.** Which self-cleavage does the source give for U26A A28G C40A U74G here?
**A.** 0.22

**Q.** For U26A C29U U41A U49A, which self-cleavage is on record?
**A.** 0.05

**Q.** For U25C U43G U66C U72A U80C, which self-cleavage is on record?
**A.** 0.24

**Q.** Which self-cleavage does the source give for U26A A28C U78C here?
**A.** 0.23

**Q.** Which self-cleavage does the source give for U25C U43A A47G A65G A77U here?
**A.** 0.22

**Q.** With U26A G30U U49C U54C U58C as the variant, how does the self-cleavage read?
**A.** 0.08

**Q.** For U26A U41C U43A U76C, which self-cleavage is on record?
**A.** 0.14

**Q.** For U26A U41C A45G A65U U67C, which self-cleavage is on record?
**A.** 0.17

**Q.** With U26A U51C U80C as the variant, how does the self-cleavage read?
**A.** 0.56

**Q.** For U25C U66C U72G, which self-cleavage is on record?
**A.** 0.05

**Q.** With U26A G36U A57G U60A A65U as the variant, how does the self-cleavage read?
**A.** 0.09

**Q.** Which self-cleavage does the source give for U26A A35G G42A here?
**A.** 0.17

**Q.** Which self-cleavage does the source give for U25C U41A U60C A64G here?
**A.** 0.07

Reference: the RNAGym collection of RNA variant scans (doi:10.1093/nar/gkz1192)
